Changes are numbered by the printed parent chain. Results are given in words; binding and its absence hold for the method and conditions named. For part of these data: In cells and extracts the contact can be indirect. Some entries that bind do so weakly or less than the wild type. For part of these data: Sequences can lack the tags named with a protein.

Chains of the proteins cited; added tags and fusions are not shown. Lines headed by an entry give the natural chain unless they say otherwise; changes in a name come on top.
UniProt C0LGT6: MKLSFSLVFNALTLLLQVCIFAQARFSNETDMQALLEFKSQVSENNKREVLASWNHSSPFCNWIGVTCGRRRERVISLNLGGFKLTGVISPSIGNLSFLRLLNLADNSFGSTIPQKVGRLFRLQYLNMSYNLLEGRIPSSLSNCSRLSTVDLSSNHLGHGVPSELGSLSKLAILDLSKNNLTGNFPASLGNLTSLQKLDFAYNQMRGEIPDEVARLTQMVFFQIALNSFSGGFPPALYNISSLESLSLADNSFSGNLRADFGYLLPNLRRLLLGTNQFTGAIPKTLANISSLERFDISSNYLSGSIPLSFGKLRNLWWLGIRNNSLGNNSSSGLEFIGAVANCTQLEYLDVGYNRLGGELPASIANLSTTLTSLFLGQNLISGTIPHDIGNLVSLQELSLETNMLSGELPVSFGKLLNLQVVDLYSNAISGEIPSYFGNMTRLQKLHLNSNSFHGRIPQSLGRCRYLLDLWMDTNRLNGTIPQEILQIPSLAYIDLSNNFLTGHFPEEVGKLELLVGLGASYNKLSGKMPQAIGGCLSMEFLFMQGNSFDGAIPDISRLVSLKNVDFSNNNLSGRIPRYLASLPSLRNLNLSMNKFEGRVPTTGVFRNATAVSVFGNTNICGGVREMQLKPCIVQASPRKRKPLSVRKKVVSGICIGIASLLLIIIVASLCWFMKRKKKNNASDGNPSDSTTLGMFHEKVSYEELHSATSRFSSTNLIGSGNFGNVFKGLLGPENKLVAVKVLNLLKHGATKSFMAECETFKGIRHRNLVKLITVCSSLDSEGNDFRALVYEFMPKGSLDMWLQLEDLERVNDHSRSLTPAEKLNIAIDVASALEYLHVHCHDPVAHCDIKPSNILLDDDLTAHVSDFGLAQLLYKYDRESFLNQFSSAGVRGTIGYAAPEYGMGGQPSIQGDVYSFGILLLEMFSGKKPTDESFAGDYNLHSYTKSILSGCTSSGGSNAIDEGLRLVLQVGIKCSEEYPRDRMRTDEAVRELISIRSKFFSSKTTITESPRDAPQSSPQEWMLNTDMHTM
UniProt Q9FL28: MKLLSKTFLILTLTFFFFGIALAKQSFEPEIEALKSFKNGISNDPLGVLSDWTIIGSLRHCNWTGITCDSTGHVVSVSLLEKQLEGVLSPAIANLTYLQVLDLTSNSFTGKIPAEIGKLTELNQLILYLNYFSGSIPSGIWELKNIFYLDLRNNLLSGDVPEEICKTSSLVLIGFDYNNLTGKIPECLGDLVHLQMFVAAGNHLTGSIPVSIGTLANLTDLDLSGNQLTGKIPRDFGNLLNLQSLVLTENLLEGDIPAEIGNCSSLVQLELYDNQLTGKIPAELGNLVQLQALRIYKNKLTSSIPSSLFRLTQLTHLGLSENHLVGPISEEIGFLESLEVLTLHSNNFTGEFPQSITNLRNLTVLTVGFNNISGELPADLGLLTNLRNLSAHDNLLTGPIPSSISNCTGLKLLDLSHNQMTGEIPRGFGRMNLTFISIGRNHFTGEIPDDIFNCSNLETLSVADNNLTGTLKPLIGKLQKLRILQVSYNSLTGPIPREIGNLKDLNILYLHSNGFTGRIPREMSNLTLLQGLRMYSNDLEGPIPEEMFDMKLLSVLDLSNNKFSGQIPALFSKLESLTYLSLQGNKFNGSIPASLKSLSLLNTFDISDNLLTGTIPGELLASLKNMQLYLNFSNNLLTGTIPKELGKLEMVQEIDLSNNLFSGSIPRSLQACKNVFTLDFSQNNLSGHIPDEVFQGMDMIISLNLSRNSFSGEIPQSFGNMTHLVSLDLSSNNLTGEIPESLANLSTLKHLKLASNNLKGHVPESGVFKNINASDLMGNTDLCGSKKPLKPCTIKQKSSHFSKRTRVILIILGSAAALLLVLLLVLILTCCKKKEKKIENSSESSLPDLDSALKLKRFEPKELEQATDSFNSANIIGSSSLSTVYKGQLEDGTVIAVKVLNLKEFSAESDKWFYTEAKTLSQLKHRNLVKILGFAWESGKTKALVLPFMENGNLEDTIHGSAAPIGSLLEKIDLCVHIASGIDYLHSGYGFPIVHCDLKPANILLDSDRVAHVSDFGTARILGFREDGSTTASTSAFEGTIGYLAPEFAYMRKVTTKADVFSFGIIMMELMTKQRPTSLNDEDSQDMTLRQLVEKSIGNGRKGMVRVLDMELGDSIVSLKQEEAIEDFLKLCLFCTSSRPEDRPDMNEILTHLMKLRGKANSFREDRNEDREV

For test [1], the target named is T1, RGS1CT (recombinant, GST pull-down) (Arabidopsis thaliana) (UniProt Q8H1F2).
T1 sequence: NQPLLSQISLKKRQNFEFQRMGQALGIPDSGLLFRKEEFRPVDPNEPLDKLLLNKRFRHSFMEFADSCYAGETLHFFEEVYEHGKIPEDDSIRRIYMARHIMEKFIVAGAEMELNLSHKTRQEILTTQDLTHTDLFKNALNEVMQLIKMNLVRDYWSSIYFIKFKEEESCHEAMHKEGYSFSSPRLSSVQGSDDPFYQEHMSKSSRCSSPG
Put plainly: pull-down; GST pull-down; 5 μg GST- and HIS-tagged proteins with glutathione agarose beads in 25 mM Tris-HCl, 100 mM NaCl, 1 mM DTT, pH 7.5, 1 h at 4 °C; washed with 300 mM NaCl; anti-HIS immunoblot; both purified.

Test [2] concerns the target T2, GPA1-FLAG (Arabidopsis thaliana) (UniProt P18064).
T2 sequence: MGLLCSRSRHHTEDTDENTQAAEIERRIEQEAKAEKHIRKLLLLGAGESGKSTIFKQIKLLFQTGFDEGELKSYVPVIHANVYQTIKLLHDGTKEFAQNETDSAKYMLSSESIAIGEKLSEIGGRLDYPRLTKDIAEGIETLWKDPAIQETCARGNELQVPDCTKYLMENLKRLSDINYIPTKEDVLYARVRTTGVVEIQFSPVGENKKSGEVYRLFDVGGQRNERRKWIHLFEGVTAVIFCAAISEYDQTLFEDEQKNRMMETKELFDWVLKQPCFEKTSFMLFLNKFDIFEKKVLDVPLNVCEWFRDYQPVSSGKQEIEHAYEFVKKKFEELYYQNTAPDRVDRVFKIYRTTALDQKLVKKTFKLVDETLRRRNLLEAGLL
Put plainly: co-IP; Arabidopsis protoplasts (Col-0 or rgs1-2) transfected, with or without 1 μM flg22 for 5 min, with or without co-expressed RGS1 variants; extraction buffer 50 mM HEPES pH 7.5, 150 mM KCl, 10 mM EDTA, 0.5% Triton X-100, 1 mM DTT; anti-FLAG M2 agarose, eluted with 3×FLAG peptide; anti-HA and anti-FLAG immunoblots.

The target in test [3] is T3, RGS1CT-FLAG (Arabidopsis thaliana) (UniProt Q8H1F2).
T3 sequence: T1 sequence
Described as above.

Test [4] has as its target T4, RGS1CT^S431A-FLAG (Arabidopsis thaliana) (UniProt Q8H1F2).
T4 sequence: T1 sequence with S183A
Described as above.

Test [5] has as its target RGS1 (luciferase complementation fusion) (Arabidopsis thaliana) (UniProt Q8H1F2). The experiment in a line: split reporter; luciferase complementation; Nluc and Cluc constructs co-expressed in N. benthamiana leaves by Agrobacterium; leaf disks after 2 days with 1 mM luciferin; with or without flg22, elf18 or chitin.

With “EFR kinase domain (EFRKD) (from UniProt C0LGT6 712-1001) (domain or fragment)”, the binding entry in test [1] is “binds”.

In the case of “FLS2-HA (from UniProt Q9FL28 24-1173) (receptor)”, the binding entry in test [2], in test [3] and in test [4] was “binds” each time.

Regarding “FLS2 kinase domain (FLS2KD) (from UniProt Q9FL28 870-1155) (domain or fragment)”, the binding entry in test [1] is on record as “binds”.

As to “EFR (luciferase complementation fusion) (from UniProt C0LGT6 25-1031) (receptor)”, the binding entry in test [5] is given as “binds”.

(Values after publication PMC5951851.)
